Data from the supplement of paper PMC9446081.
The campaign covered roughly 39,000 compounds. About 220 (0.56%) showed activity. This is one part of the list.

Test system: Escherichia coli K-12 BW25113
Assay: relative growth (OD600 normalised to plate interquartile mean) (fraction); higher = less growth inhibition, active = 0.2 or less
Conditions: 50 µM; LB; incubation time: overnight (16-24 h)
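Further: static incubation at 37 °C against the wild-type strain, values averaged over two biological replicates.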

SMILES | relative growth
C[C@@H]1CN([C@@H](C)CO)C(=O)c2cc(NS(=O)(=O)c3cccs3)ccc2O[C@H]1CN(C)C(=O)Nc1cccc2ccccc12 | inactive: 0.982
COc1ccc(CN(C)C[C@@H]2OCCCC[C@@H](C)Oc3ccc(NC(=O)Nc4ccc(C(F)(F)F)cc4)cc3C(=O)N([C@H](C)CO)C[C@@H]2C)cc1 | inactive: 1.05
C[C@H](CO)N1C[C@H](C)[C@@H](CN(C)S(=O)(=O)c2cccc(C#N)c2)OCc2cn(nn2)CCCC1=O | inactive: 0.99
Cc1ccc(S(=O)(=O)N(C)C[C@@H]2Oc3c(NS(=O)(=O)c4c(C)noc4C)cccc3C(=O)N([C@H](C)CO)C[C@@H]2C)cc1 | inactive: 1
Cc1nn(C)c(COc2ccc(N3CCN(S(=O)(=O)N(C)C)CC3)cc2)c1-c1cccc2c(CCCOc3cccc4ccccc34)c(C(=O)O)n(CCN3CCNCC3)c12 | inactive: 1.01
COC(=O)c1cn(CC(=O)N2CCN(C)CC2)nn1 | inactive: 0.978
C[C@H](CO)N1C[C@H](C)[C@@H](CN(C)S(=O)(=O)c2cccs2)Oc2c(NS(C)(=O)=O)cccc2C1=O | inactive: 0.995
C[C@H](CO)N1C[C@H](C)[C@@H](CN(C)Cc2ccc(Oc3ccccc3)cc2)Oc2c(NC(=O)c3ccncc3)cccc2C1=O | inactive: 1.06
C[C@H](CO)N1C[C@H](C)[C@H](CN(C)S(=O)(=O)c2ccccc2)Oc2ccc(NS(=O)(=O)c3cn(C)cn3)cc2CC1=O | inactive: 0.956
O=C(O)c1cc(-n2cnnn2)ccc1O | inactive: 1.02
CC(C)NC(=O)Nc1ccc2c(c1)C(=O)N([C@@H](C)CO)C[C@@H](C)[C@@H](CN(C)Cc1ccc(C(F)(F)F)cc1)OCCCC[C@H](C)O2 | inactive: 0.934
C[C@@H]1CCCCO[C@@H](CN(C)Cc2ccc(C(F)(F)F)cc2)[C@H](C)CN([C@H](C)CO)C(=O)c2cc(NS(=O)(=O)c3cccs3)ccc2O1 | inactive: 1.05
Cc1noc(C)c1S(=O)(=O)N(C)C[C@@H]1Oc2ccc(NC(=O)c3ccncc3)cc2CC(=O)N([C@H](C)CO)C[C@@H]1C | inactive: 1.01
C[C@@H]1CN([C@@H](C)CO)C(=O)c2cccc(NC(=O)Nc3ccc(C(F)(F)F)cc3)c2O[C@H]1CN(C)Cc1ccncc1 | inactive: 0.943
C[C@H](CO)N1C[C@H](C)[C@@H](CN(C)C(=O)Nc2ccc3c(c2)OCCO3)OCc2cnnn2CCCC1=O | inactive: 0.975
COc1ccc(CN(C)C[C@H]2Oc3c(NC(=O)CCCCCC(=O)Nc4ccccc4N)cccc3C(=O)N([C@@H](C)CO)C[C@@H]2C)cc1 | inactive: 0.993
OC[C@H]1O[C@H]2O[C@@H]3[C@@H](O)[C@H](O)[C@H](O[C@@H]4[C@@H](O)[C@H](O)[C@H](O[C@@H]5[C@@H](O)[C@H](O)[C@H](O[C@@H]6[C@@H](O)[C@H](O)[C@H](O[C@@H]7[C@@H](O)[C@H](O)[C@H](O[C@@H]8[C@@H](O)[C@H](O)[C@H](O[C@@H]1[C@@H](O)[C@@H]2O)O[C@@H]8CO)O[C@@H]7CO)O[C@@H]6CO)O[C@@H]5CO)O[C@@H]4CO)O[C@@H]3CO | inactive: 0.999
Cc1noc(C)c1NC(=O)Nc1ccc2c(c1)CC(=O)N([C@@H](C)CO)C[C@H](C)[C@@H](CN(C)C(=O)Nc1ccc(C(F)(F)F)cc1)O2 | inactive: 0.99
Cc1ccc(S(=O)(=O)Nc2ccc3c(c2)C(=O)N([C@@H](C)CO)C[C@@H](C)[C@H](CN(C)C(=O)c2ccccc2)OCCCC[C@H](C)O3)cc1 | inactive: 1

SMILES | relative growth
C[C@@H]1CCCCO[C@@H](CN(C)Cc2ccc3c(c2)OCO3)[C@@H](C)CN([C@@H](C)CO)C(=O)c2cc(NS(=O)(=O)c3ccc(Cl)cc3)ccc2O1 | inactive: 0.945
Cc1cc2c(cc1S(N)(=O)=O)S(=O)(=O)CCC2 | inactive: 0.972
Cc1ccc(S(=O)(=O)Nc2ccc3c(c2)C(=O)N([C@H](C)CO)C[C@@H](C)[C@H](CN(C)S(C)(=O)=O)O3)cc1 | inactive: 0.992
COc1ccc(CN(C)C[C@H]2OCCCC[C@H](C)Oc3ccc(NS(=O)(=O)c4ccccc4)cc3C(=O)N([C@@H](C)CO)C[C@H]2C)cc1 | inactive: 0.984
COc1ccccc1CN(C)C[C@H]1OCc2ccccc2-c2c(n(C)c3ccccc23)C(=O)N([C@@H](C)CO)C[C@@H]1C | inactive: 0.983
C[C@@H]1CCCCO[C@@H](CN(C)C(=O)CCC(F)(F)F)[C@@H](C)CN([C@@H](C)CO)C(=O)c2cc(NC(=O)Nc3ccc4c(c3)OCO4)ccc2O1 | inactive: 0.994
COc1ccc(S(=O)(=O)Nc2cccc3c2O[C@@H](CN(C)S(C)(=O)=O)[C@@H](C)CN([C@@H](C)CO)C3=O)cc1 | inactive: 1
CC(C)NC(=O)Nc1ccc2c(c1)C(=O)N([C@H](C)CO)C[C@H](C)[C@H](CN(C)C(=O)Nc1ccc(F)cc1)OCCCC[C@@H](C)O2 | inactive: 0.973
N[C@@H]1CC[C@@H](CCn2cc(C3(O)CCCC3)nn2)O[C@H]1CO | inactive: 0.99
C[C@H]1CN([C@@H](C)CO)C(=O)c2ccccc2-c2ccccc2CO[C@H]1CN(C)C(=O)Nc1cccc(F)c1 | inactive: 1.02
C[C@H](CO)N1C[C@H](C)[C@@H](CN(C)S(=O)(=O)c2ccc(F)cc2)Oc2c(NS(C)(=O)=O)cccc2C1=O | inactive: 0.995
C[C@H]1CN([C@@H](C)CO)C(=O)c2cccc(NC(=O)NC3CCCCC3)c2O[C@H]1CN(C)S(=O)(=O)c1cn(C)cn1 | inactive: 0.992
C[C@@H]1CN([C@H](C)CO)C(=O)c2cccc(NC(=O)Nc3ccc(C(F)(F)F)cc3)c2O[C@H]1CN(C)CC1CCCCC1 | inactive: 0.898
C[C@@H]1CN([C@H](C)CO)C(=O)c2ccccc2-c2ccccc2CO[C@@H]1CN(C)Cc1ccccc1C(F)(F)F | inactive: 1.03
c1ccc(Nc2ncnc3sc(-c4ccccc4)cc23)cc1 | inactive: 1.03
COc1ccc(S(=O)(=O)N(C)C[C@@H]2Oc3ccc(NC(=O)Nc4cccc5c4CCCC5)cc3CC(=O)N([C@@H](C)CO)C[C@@H]2C)cc1Cl | inactive: 1.01
C[C@H](CO)N1C[C@H](C)[C@H](CN(C)C(=O)Nc2ccccc2C(F)(F)F)OCc2cnnn2CCCC1=O | inactive: 1.02
C[C@@H]1CN([C@@H](C)CO)C(=O)c2cc(NS(=O)(=O)c3cn(C)cn3)ccc2O[C@@H]1CN(C)Cc1ccncc1 | inactive: 0.994
C[C@H](CO)N1C[C@H](C)[C@H](CN(C)Cc2ccc(-c3ccccc3)cc2)Oc2ccc(NC(=O)Nc3ccc4c(c3)OCO4)cc2C1=O | inactive: 0.985

SMILES | relative growth
C[C@H](CO)N1C[C@H](C)[C@H](CN(C)Cc2ccc(C(F)(F)F)cc2)OCCCC[C@H](C)Oc2ccc(NS(C)(=O)=O)cc2C1=O | inactive: 0.991
Cc1[nH]c(=O)[nH]c(=O)c1S(=O)(=O)NCc1ccccn1 | inactive: 1.01
C[C@@H]1CCCCO[C@@H](CN(C)C(=O)C2CCCCC2)[C@@H](C)CN([C@H](C)CO)C(=O)c2cc(NC(=O)Nc3ccc4c(c3)OCO4)ccc2O1 | inactive: 0.954
CCNC(=O)[C@H]1[C@H](CO)[C@H]2Cn3c(ccc(C4=CCCC4)c3=O)[C@@H]1N2S(=O)(=O)c1cn(C)cn1 | inactive: 0.993
O=C(O)c1cc2cc(F)ccc2s1 | inactive: 0.967
CCCCCOC(=O)Nc1nc(=O)n(C2OC(C)C(O)C2O)cc1F (configuration not stated) | inactive: 1.1
C[C@@H]1CN([C@H](C)CO)C(=O)c2cc(NC(=O)NC3CCCCC3)ccc2O[C@@H](C)CCCCO[C@H]1CN(C)C(=O)CCC(F)(F)F | inactive: 0.99
C[C@H](CO)N1C[C@H](C)[C@@H](CN(C)C(=O)Nc2ccc(C(F)(F)F)cc2)Oc2c(NC(=O)c3ccc(-c4nccs4)cc3)cccc2C1=O | inactive: 0.947
Nc1nc(=O)n(C2CSC(CO)O2)cc1F (configuration not stated) | inactive: 1.06
COc1cccc(C#Cc2ccc3c(c2)O[C@H](CN(C)C(=O)CN2CCOCC2)[C@@H](C)CN([C@@H](C)CO)S3(=O)=O)c1 | inactive: 1.02
COc1ccccc1S(=O)(=O)N[C@@H]1C=C[C@@H](CC(=O)N2CCOCC2)O[C@@H]1CO | inactive: 0.937
C[C@@H]1CCCCO[C@@H](CN(C)C(=O)c2ccccc2)[C@H](C)CN([C@H](C)CO)C(=O)c2cc(NC(=O)Nc3ccc4c(c3)OCO4)ccc2O1 | inactive: 1.04
O=C(NCC[C@H]1CC[C@H](NS(=O)(=O)c2cccc(F)c2)[C@H](CO)O1)C1CC1 | inactive: 0.999
CC(C)NC(=O)N(C)C[C@@H]1Oc2ccc(NS(=O)(=O)c3ccc(F)cc3)cc2C(=O)N([C@H](C)CO)C[C@H]1C | inactive: 0.999
Cc1ccc(S(=O)(=O)N(C)C[C@@H]2OCCCC[C@H](C)Oc3ccc(NC(=O)Nc4ccc(F)cc4)cc3C(=O)N([C@H](C)CO)C[C@@H]2C)cc1 | inactive: 0.987
C[C@@H]1CN([C@@H](C)CO)C(=O)c2cc(NC(=O)CCC(F)(F)F)ccc2O[C@@H](C)CCCCO[C@H]1CN(C)C(=O)Nc1ccccc1 | inactive: 0.99
C[C@@H]1CN([C@H](C)CO)C(=O)c2cc(NS(C)(=O)=O)ccc2O[C@@H](C)CCCCO[C@@H]1CN(C)S(C)(=O)=O | inactive: 1
C[C@H](CO)N1C[C@H](C)[C@H](CN(C)C(=O)c2ccccc2F)Oc2ncc(C#Cc3ccncc3)cc2C1=O | inactive: 0.992
CCC[C@@H](O)C#Cc1cnc2c(c1)C(=O)N([C@H](C)CO)C[C@H](C)[C@H](CN(C)S(C)(=O)=O)O2 | inactive: 0.993
